# Source: the supplement of paper PMC3334620
# Whole data set: some 33,000 sequences, median “E-score (-0.5 to 0.5)” near -0.035, cut for the highest 2% near 0.35. The list shows a part of the results.
# Biological target: T1, Pdr3 (UniProt P33200)
# T1 sequence: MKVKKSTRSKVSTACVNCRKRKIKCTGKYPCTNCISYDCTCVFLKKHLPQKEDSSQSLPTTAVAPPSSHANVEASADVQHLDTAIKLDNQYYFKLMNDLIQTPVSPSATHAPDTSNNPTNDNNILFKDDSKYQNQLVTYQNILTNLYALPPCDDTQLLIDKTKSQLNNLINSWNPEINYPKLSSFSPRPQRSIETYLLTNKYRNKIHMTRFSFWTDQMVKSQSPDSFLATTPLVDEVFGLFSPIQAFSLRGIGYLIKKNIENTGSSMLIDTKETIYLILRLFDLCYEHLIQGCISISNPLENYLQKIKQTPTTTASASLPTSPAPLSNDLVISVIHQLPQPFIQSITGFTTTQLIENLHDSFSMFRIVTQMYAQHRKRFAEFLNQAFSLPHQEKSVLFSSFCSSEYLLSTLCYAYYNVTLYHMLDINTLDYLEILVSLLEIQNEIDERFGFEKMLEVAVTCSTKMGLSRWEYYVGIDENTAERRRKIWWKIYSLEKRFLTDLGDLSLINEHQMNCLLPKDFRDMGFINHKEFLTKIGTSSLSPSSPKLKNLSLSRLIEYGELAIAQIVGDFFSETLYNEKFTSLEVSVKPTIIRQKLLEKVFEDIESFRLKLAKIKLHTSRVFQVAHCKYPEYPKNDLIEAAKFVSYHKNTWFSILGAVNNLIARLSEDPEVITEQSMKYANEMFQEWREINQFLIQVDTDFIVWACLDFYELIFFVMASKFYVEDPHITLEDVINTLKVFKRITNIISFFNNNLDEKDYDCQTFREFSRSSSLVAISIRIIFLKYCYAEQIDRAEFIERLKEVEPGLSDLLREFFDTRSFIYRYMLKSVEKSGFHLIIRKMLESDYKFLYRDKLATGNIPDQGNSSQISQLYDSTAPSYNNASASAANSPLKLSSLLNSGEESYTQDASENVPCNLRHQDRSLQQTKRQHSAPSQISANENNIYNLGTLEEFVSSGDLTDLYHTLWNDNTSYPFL
# Assay: PBM E-score (8-mer binding enrichment) (E-score (-0.5 to 0.5)); higher = stronger / more preferred TF binding; most listed sequences are background and not binding sites
# Settings: protein concentration: 200 nM; construct: GST-full length
# Method: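 Universal 'all 10-mer' protein binding microarrays (Agilent AMADID 015681) probed with GST-tagged S. cerevisiae TFs (full-length or DBD) made by in vitro transcription/translation (PURExpress), about 100-200 nM. Bound TF was detected with fluorescent anti-GST. Each ungapped 8-mer (which stands for itself and its reverse complement) is scored by the PBM enrichment score (E-score), a modified Wilcoxon-Mann-Whitney statistic from -0.5 to +0.5, computed with the Universal PBM Analysis Suite. Scale: above 0.35 generally sequence-specific binding.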
row,Sequence,PBM E-score
1,CCTTCCAA,-0.0521
2,CATAGGCG,-0.0764
3,TACACCTA,-0.108
4,GCGTACAC,-0.23
5,ATCGGATG,0.256
6,ATTAGATC,0.0761
7,GCAAGCTA,-0.141
8,CACCTACA,-0.202
9,AACTGACT,-0.153
10,GATTCTGA,-0.0272
11,ATCTTTAC,-0.0847
12,CAATACTG,-0.168
13,CTTGCAGC,-0.0894
14,AACGTAAG,-0.194
15,AAGTAATA,-0.074
16,CCAAGAAC,-0.155
17,AGTTCAAT,-0.139
18,ACCTAATG,-0.305
19,CCGCCTAC,0.127
20,GCACACAC,0.019
21,GTCCACAA,-0.163
22,CCCAAAAA,-0.0957
23,TAATCGTA,-0.1
24,TCCTGAGA,-0.258
25,AGAGGATC,-0.0144

row,Sequence,PBM E-score
1,ATTGCGTG,0.0079
2,ACGATCCG,0.368
3,ACCACAAG,0.0845
4,CGGTCCGC,0.323
5,ATGTCGAG,-0.0433
6,GGTCGAGA,-0.0302
7,TTAGCTAA,-0.342
8,ACTACAAA,0.12
9,AGGTAACT,-0.0303
10,CCTCAAGA,-0.0908
11,AAAGAGAA,-0.103
12,CCCTTTCC,0.082
13,ACCAACAA,0.137
14,GTATGCCA,-0.15
15,ACTTTCCC,0.0862
16,CTTGTTTA,-0.0276
17,AACGCGGT,0.1
18,CAATCTTA,-0.104
19,CCGTGATC,0.232
20,ACCTTGCA,-0.141
21,ACCAGCGG,0.117
22,TCAACGAA,0.0322
23,ATGGCCAG,0.0413
24,AGCGAAAA,-0.0892
25,ATAAGCTA,-0.181

row,Sequence,PBM E-score
1,CGCCAGTC,-0.0682
2,ACTTGCAG,-0.177
3,CTTAACCC,-0.157
4,TTGAAAAA,-0.101
5,AAAGTCTT,-0.128
6,ACTCTACT,-0.0826
7,ACGACGAA,0.0114
8,AGAGAAGA,-0.161
9,CCCCCAGA,-0.319
10,ATTGCGTC,0.163
11,CACCCAAC,0.0734
12,AACTTATG,-0.11
13,CGTAATTC,-0.0514
14,AGTATGTC,0.0221
15,GCCCAAAC,0.0686
16,GAAATATC,0.195
17,ACCTACTC,0.0138
18,AGCCGGCC,0.266
19,AAGTCAGA,-0.0495
20,CACGGTCA,0.0472
21,AAGCTTGA,-0.0429
22,CCCTCGGA,0.373
23,CAGGCCGA,0.0831
24,ACAACGAT,0.052
25,CTTCTCAC,0.0861

row,Sequence,PBM E-score
1,CGACCCAG,-0.0252
2,AGCCGGCG,0.372
3,ACACGACA,-0.0523
4,TCCGTAAA,0.346
5,GTAGAGCA,-0.269
6,ACTCTGGG,-0.086
7,AGCGCTCG,0.0716
8,TCTGACCA,-0.0719
9,CCTCGCAC,0.00281
10,GCGGCGAC,0.285
11,ACAACCAC,-0.0524
12,CCACCGGA,0.428
13,ATCATTGC,-0.168
14,ATGGATTA,-0.209
15,ACATGGCT,-0.135
16,CCTCATAA,-0.171
17,AGTTGGTG,0.00428
18,AATTGGGT,0.117
19,GAGAGATC,0.00988
20,TCGATGCA,-0.107
21,AAATCGAC,0.0112
22,AAACGCTC,-0.141
23,CGTAGCAC,-0.141
24,ATCGCCCA,-0.126
25,CTGACGTC,-0.141

row,Sequence,PBM E-score
1,AGACAAGC,-0.0931
2,CTTCGGAC,0.283
3,TGATACCA,0.0811
4,CTGGGATC,0.0126
5,GCCCGGAA,0.459
6,CAGAATAG,-0.0833
7,ACGTCCTG,-0.164
8,CATTATAC,0.0592
9,CTCATTCA,-0.0959
10,GCGTTGGA,-0.0194
11,ATGAGCCC,-0.171
12,CCAGCCTC,-0.253
13,CTTAAGAA,-0.0351
14,AAACGGAC,0.189
15,GAGCCTGC,0.0746
16,TAAAGCCA,-0.223
17,CCAAGTCC,-0.065
18,TCATGTCA,-0.122
19,AAGGCGCC,0.12
20,CCAGTGAG,-0.184
21,CCTGTCCA,-0.259
22,AATCGTCC,0.187
23,CTAACATC,0.0252
24,ACAAGGCT,-0.315
25,CCACCGCG,0.302

row,Sequence,PBM E-score
1,TACGTCGA,-0.124
2,TACTCCGA,0.296
3,GGGGTTTA,-0.12
4,ACCCTACT,-0.148
5,AAGGGGCA,-0.119
6,ATTATGGA,0.00094
7,AAATGGGT,0.111
8,CTGATCTC,0.042
9,CAAATCTC,0.0357
10,GCACAACC,-0.00027
11,CAGTTGCC,-0.0572
12,CAAGCTGA,0.0752
13,CTTCCTTA,-0.13
14,CCCTGTGC,-0.139
15,GATGTTGA,-0.143
16,AGACAGGA,-0.00086
17,CCGGGGGA,0.311
18,GAGGCATC,-0.163
19,ATCGCTGC,0.113
20,ATGCAATG,-0.159
21,GAAACGCC,0.187
22,AGTTTCGG,0.225
23,TGCAGCAA,-0.104
24,AGTATAAG,0.052
25,CGACAGTC,-0.24

row,Sequence,PBM E-score
1,CGAGAGTA,0.197
2,AGCAGCTG,-0.0576
3,AAACCGTT,-0.0215
4,GTAGGCGA,-0.0578
5,GTAGCCAA,-0.161
6,CCAGAGAG,-0.216
7,CGCTGGCC,-0.0818
8,AGGATGGC,0.0452
9,ACACTCCG,0.204
10,CAGAGTGA,-0.0887
11,AACTCGAT,0.0479
12,CTCATTGA,-0.188
13,AAGACCAC,-0.332
14,CAGTGTGC,-0.225
15,ATAAGATA,0.0912
16,ACAACTCA,-0.00409
17,CCAGACGG,0.0376
18,CGATGCCC,-0.13
19,ATTGGAGA,-0.0772
20,CGGTGCGA,-0.0161
21,AATTGGAA,0.0211
22,AATCACCG,0.0766
